# Test results reported in the supplement of paper PMC3334620.
# In all, about 33,000 sequences were measured (“E-score (-0.5 to 0.5)”: median about -0.011, highest 2% from about 0.28 on). Some of the results follow.
# Molecular target: T1, Gcr1 (UniProt P07261)
# T1 sequence: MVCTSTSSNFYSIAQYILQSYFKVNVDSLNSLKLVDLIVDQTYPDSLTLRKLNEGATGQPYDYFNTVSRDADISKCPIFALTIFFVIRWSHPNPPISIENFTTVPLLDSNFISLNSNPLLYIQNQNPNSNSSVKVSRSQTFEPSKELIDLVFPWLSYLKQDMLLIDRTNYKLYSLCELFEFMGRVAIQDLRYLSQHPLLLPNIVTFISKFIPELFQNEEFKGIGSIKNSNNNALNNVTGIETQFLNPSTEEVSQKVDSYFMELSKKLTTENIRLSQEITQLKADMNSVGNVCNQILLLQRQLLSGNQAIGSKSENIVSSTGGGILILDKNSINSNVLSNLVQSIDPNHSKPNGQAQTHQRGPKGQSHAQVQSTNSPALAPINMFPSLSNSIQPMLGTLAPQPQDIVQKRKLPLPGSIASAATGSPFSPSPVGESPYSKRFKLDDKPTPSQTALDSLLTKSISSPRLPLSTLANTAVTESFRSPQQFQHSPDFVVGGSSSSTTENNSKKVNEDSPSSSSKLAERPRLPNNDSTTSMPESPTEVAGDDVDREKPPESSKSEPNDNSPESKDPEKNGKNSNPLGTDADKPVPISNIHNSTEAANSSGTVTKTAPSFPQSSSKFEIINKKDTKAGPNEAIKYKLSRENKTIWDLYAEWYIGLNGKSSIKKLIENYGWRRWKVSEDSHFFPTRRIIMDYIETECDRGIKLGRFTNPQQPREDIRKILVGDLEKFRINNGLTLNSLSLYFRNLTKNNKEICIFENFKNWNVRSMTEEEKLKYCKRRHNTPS
# Experiment: PBM E-score (8-mer binding enrichment) (E-score (-0.5 to 0.5)); higher = stronger / more preferred TF binding; most listed sequences are background and not binding sites
# Settings: protein concentration: 100 nM; construct: GST-full length
# In short: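 Universal all-10-mer Agilent arrays, double-stranded by primer extension on fresh or once-stripped slides, were probed with about 100-200 nM GST-tagged yeast transcription factors made by PURExpress. Fluorescent anti-GST detected bound protein, and masliner normalised the scans. E-scores from the Universal PBM Analysis Suite were given to each ungapped eight-base word pooled with its reverse complement.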
row,Sequence,PBM E-score
1,CTTTTATC,0.116
2,GAAACTCC,-0.145
3,CAGCCATG,-0.123
4,CGTAACGC,-0.0795
5,CCCGCTTA,0.161
6,GCAGCTCC,0.115
7,AGGTCAAG,-0.046
8,CAAGGGTC,-0.13
9,GGCTCTAA,0.0892
10,AGCAAATA,0.0314
11,AAGCTATA,-0.0637
12,CGAAATAC,0.0793
13,GTTGCGTA,0.157
14,GCTAGCTA,-0.225
15,CGAGGTGC,0.0833
16,AACGGAGT,0.0165
17,ACGTAAGC,-0.142
18,ATCTCGTA,0.102
19,TACTAGAA,0.235
20,GGTTAGAA,-0.151
21,CATGCACC,-0.181
22,CTCGAGTC,-0.0326
23,GAGCCCAA,0.119
24,ATTATATC,0.0964
25,ATGGAGAC,0.145

row,Sequence,PBM E-score
1,CCAGATAG,0.128
2,AAAGTTAT,0.187
3,CGGTATTC,0.152
4,AAGATTGC,0.0695
5,CTGCGTGA,0.157
6,GGGTTGCA,-0.0951
7,GGTATGAA,-0.0866
8,AGAACATA,0.0279
9,ACTTCAGG,-0.0899
10,CATACTGG,0.209
11,GTTCTGTA,0.0093
12,ATACGAGC,0.0308
13,AGCCGCCG,0.167
14,ATACTGAA,0.00831
15,AACACCTG,-0.252
16,AAGGAACG,-0.0671
17,ATCATACG,-0.128
18,ACGTGCGC,-0.142
19,TAAAAAGA,0.208
20,GCCCTATA,0.0309
21,ATCCGGCC,-0.0916
22,CTTGACAC,-0.0389
23,CATGCTGA,-0.229
24,TTCCCAAA,0.255
25,CAACGCCA,-0.0342

row,Sequence,PBM E-score
1,GAGTTAAC,-0.13
2,CCAGGCGC,0.144
3,CGTGATTA,-0.0287
4,AGGCTATG,-0.126
5,CAGTGCGC,-0.0696
6,ATGTGTAA,-0.0513
7,GCTCGTCC,-0.13
8,GAACATCA,-0.138
9,ACGACGAC,-0.087
10,CAGCTGGC,0.0948
11,CCAATGGA,0.0436
12,GAAGCATC,0.217
13,CGTTGACC,-0.0635
14,CTGGAACC,0.375
15,AGTCAGAT,0.0324
16,AACCAGCT,0.0341
17,CTTAACGC,-0.15
18,ACCCCAGG,-0.134
19,AGATCAAT,-0.0116
20,AGGTCTAT,-0.0766
21,TCTCGAGA,0.00792
22,ACCGCAGA,-0.12
23,GCTTATAA,0.205
24,AACATACT,-0.238
25,TAACACCA,-0.147

row,Sequence,PBM E-score
1,CATAAGCA,-0.00607
2,CTAGTATC,0.209
3,ACATGTTA,-0.0798
4,CCGATAAG,-0.104
5,GATCTAGC,-0.062
6,AGCCGAGG,-0.105
7,AATTTGAA,0.206
8,CGACGCTA,0.0406
9,CTATATGC,0.0406
10,CCTCAGAG,-0.128
11,CCCGTGCA,-0.309
12,GATTGAAA,-0.0674
13,AGGTGTGC,-0.205
14,ACATTATG,-0.0212
15,AGCCTTAG,-0.164
16,ATAGGGGG,0.193
17,ATAGTGGC,0.32
18,AAGGCTGG,-0.24
19,CCCAAAAG,0.13
20,CTCACGAC,-0.118
21,AGTGGAGA,-0.0192
22,GTCCCAGA,0.147
23,AGTCTGGC,-0.0196
24,CGAACATC,0.139
25,TACGCGCA,-0.0159

row,Sequence,PBM E-score
1,AATACTCA,0.0848
2,ACGACAGT,-0.234
3,CCCGACAA,-0.0155
4,CTCGGTAC,-0.141
5,TACCGGAA,0.341
6,CCCGCGTA,-0.0651
7,AGTAGAGA,-0.151
8,CTAGGACC,-0.209
9,AGGATGAA,0.00132
10,ATGGGCAC,0.191
11,GAGCGGGC,-0.0467
12,AGTATAAA,0.0707
13,CGTCTGTA,0.00259
14,ACAATGGG,0.14
15,GCGCTCAC,-0.0398
16,CTTAACAA,0.0337
17,GAAACCCA,0.165
18,AGTCCCGG,0.108
19,AAAGCTCA,-0.231
20,AGACAATC,-0.104
21,CTGCACGC,-0.314
22,AAGCCTAG,-0.212
23,ACAGATCG,-0.0988
24,CACGTTAA,-0.0775
25,AGCTGCGG,0.118

row,Sequence,PBM E-score
1,GCGCTATA,-0.138
2,ATCTGTTG,-0.131
3,TGAGACCA,-0.0611
4,CCTTTCTA,0.12
5,GACACAAA,0.12
6,CGTAGGAC,-0.145
7,AGAATGAG,-0.271
8,AGGCGAGA,-0.0862
9,ACCAGGAC,0.102
10,ACAAGAAA,0.155
11,CCAGGCTA,-0.109
12,CGACTAGA,0.0898
13,ACTCACCG,-0.196
14,GCTTACTA,-0.0743
15,ACAACGGG,-0.0515
16,CCACGTCG,-0.233
17,AGAATCAC,-0.139
18,CGCGATAC,0.192
19,AATCCATA,0.085
20,CTCGTGCA,-0.0437
21,CGGAATCC,0.417
22,ACGGCAAT,-0.0224
23,CTTGAGCA,-0.0726
24,CATTTGAC,-0.0858
25,GTAGGACA,-0.123

row,Sequence,PBM E-score
1,CCGACGGA,-0.0795
2,GGAACAAA,0.103
3,GAAAATTA,0.118
4,GCGACTCA,0.0165
5,TCACGTGA,-0.0645
6,CTAACTAC,-0.14
7,GTCCCAAA,0.0352
8,CAGGCTCG,-0.211
9,CGGAGCGA,-0.06
10,AACCATAT,0.0076
11,GGTTAGGA,0.0114
12,AACAGCTT,0.128
13,ATCGCGCC,0.113
14,GGAGTAAA,-0.173
15,CGCGCTTC,0.266
16,CGGCTCCC,0.34
17,CACCTGAC,-0.0894
18,ATAAGCTG,0.15
19,ATTCGGGG,0.121
20,TCTCAAAA,0.137
21,GCCAAGAA,0.124
22,CAAGTGGC,0.146
